From PMC4336329 (PLoS ONE, 2015)
Among all 310,000 compounds or so, about 14,000 (4.5%) showed an effect of 50% or more. Effects have a minus sign here. The list shows a part of the results.

target: human ether-à-go-go-related gene (hERG) potassium channel (human, UniProt Q12809); assay: primary screen, population patch clamp on CHO cells stably expressing hERG
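Note: peak tail current of the secondary pulse compared with the same well before compound.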

human ether-à-go-go-related gene (hERG) potassium channel, sequence (Q12809 whole entry, looked up): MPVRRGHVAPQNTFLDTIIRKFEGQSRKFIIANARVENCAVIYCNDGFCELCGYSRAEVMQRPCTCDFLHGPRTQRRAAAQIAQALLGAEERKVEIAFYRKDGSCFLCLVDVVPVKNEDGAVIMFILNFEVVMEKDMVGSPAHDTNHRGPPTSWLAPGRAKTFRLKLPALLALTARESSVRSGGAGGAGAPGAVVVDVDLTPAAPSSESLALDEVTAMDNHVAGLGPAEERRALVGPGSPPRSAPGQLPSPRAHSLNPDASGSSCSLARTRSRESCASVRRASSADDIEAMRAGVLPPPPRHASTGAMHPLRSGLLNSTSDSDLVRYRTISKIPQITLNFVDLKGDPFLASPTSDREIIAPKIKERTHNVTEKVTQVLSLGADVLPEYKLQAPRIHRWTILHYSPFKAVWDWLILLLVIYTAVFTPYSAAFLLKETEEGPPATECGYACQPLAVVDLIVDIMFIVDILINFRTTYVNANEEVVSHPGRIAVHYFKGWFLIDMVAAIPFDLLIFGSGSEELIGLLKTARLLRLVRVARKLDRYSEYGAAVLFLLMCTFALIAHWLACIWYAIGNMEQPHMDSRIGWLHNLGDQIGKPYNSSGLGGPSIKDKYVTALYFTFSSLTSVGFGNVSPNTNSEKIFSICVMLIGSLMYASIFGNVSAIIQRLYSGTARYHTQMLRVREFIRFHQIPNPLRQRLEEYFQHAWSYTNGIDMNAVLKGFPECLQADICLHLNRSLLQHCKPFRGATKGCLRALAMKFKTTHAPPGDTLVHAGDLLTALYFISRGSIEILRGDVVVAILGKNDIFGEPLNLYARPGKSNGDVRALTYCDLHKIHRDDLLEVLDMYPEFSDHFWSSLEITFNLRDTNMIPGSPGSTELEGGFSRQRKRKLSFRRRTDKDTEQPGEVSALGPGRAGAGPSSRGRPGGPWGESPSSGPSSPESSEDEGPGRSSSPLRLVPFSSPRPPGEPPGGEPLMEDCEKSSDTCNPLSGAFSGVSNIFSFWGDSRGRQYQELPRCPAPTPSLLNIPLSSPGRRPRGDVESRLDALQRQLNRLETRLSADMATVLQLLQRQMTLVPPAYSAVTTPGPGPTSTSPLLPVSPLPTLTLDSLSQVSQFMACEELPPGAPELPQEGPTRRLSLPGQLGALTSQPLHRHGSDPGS

SMILES | hERG current change (%, negative = inhibition) at 10uM [%]
O=C(COC(=O)c1ccc([N+](=O)[O-])o1)Nc1cccc(S(=O)(=O)N2CCOCC2)c1 | -19.4
CCC1CCCCN1C(=O)COc1ccccc1NC(C)=O (stereo not shown) | 29.6
COc1ccc(-c2nnn(CC(=O)N(CC(=O)NC3CCCC3)c3ccccc3F)n2)cc1OC | -21.3
Fc1ccc(NC(=S)N2CCn3cccc3C2c2cccnc2)cc1 (stereo not shown) | -25.9
CC(C)N1C(=O)CCC1C(=O)NCc1ccc(F)cc1Cl (stereo not shown) | 18.3
COCCCN1C2=C(C(=O)CC(C)(C)C2)C(c2ccc(OC)c(OC)c2)C2=C1CC(C)(C)CC2=O | 11.2
CCC(C)n1c(SCC(=O)NCc2ccco2)nnc1-c1cccc(S(=O)(=O)N2CCOCC2)c1 (stereo not shown) | -27.4
CCOc1ccccc1Nc1ccc2nonc2c1[N+](=O)[O-] | 17.2
COc1ccc(-c2csc(NC(=O)CS(=O)(=O)c3ccccc3)n2)cc1 | -28.6
COC(=O)c1cc(S(=O)(=O)N2CCN(c3cccc(Cl)c3)CC2)c[nH]1 | -5
Cc1nc2c(-c3ccc(F)cc3)c(C)[nH]n2c(=O)c1Cl | 16.8
Cc1cc(F)ccc1S(=O)(=O)N1CCCCC1CCNC(=O)C(=O)NCCN1CCOCC1 (stereo not shown) | -10.5
CCCCn1cnc2sc3c(c2c1=N)CCCC3 | -52.1
O=C(CCc1nnc2ccc(NCc3ccccc3Cl)nn12)NCC1CCN(C2CCCC2)C1 (stereo not shown) | 12.8
CCOC(=O)C1CCN(C(=O)c2cc3c(=O)n4cccc(C)c4nc3s2)CC1 | -15.5
COc1ccc(C(=O)N/N=C\c2coc3ccccc3c2=O)cc1 | 6.36
CC1(C)Cc2nc3oc4c(=O)n(CC(=O)Nc5ccc(Cl)cc5)cnc4c3cc2CO1 | 12.8
CCn1c(C)c(C(=O)Nc2ccc(OC)cc2)c2cc(OC)ccc21 | 15.4
COC(=O)C1=C(c2ccc(F)cc2OCc2ccccc2)C[C@@H]2CC[C@H]1N2C(=O)NC1Cc2ccccc2C1 | 1.92
CCCC(C(=O)NC(C)(C)CC)N(CC1CCCO1)C(=O)CNS(=O)(=O)c1ccc(F)cc1 (stereo not shown) | -19
Cc1cc(C)c2nc(N(CCCN(C)C)C(=O)c3ccc(S(=O)(=O)N4CCCCCC4)cc3)sc2c1.Cl | -20.3
CCc1c(C)[nH]c2c(C)cccc2c1=O | 7.93

SMILES | hERG current change (%, negative = inhibition) at 10uM [%]
CCOC(=O)CNC(=O)Cn1cnc2ccc(S(=O)(=O)N3CCC(C)CC3)cc2c1=O | -7.29
COc1ccc(C(=O)CCC(=O)Nc2ccc(N3CCN(C)CC3)cc2)cc1OC | -9.47
O=c1ccc2c(o1)/C(=C/C=C(Cl)Cl)CCC2 | 12.7
Cc1ccc(-c2csc3ncnc(OCC(=O)NC(=O)NCc4ccco4)c23)cc1 | -0.796
COc1ccccc1N(CC(=O)NCc1ccccc1C)S(=O)(=O)c1ccc(C)cc1 | -18.4
COCCSc1nnc(NC(=O)C2CC(=O)N(c3ccc(Cl)cc3)C2)s1 (stereo not shown) | -15.6
Cc1ccc(C(=O)Nc2ccc(S(=O)(=O)N3CCOCC3)cc2)cc1Br | 3.46
CCOc1ccc(NC(=O)CN(C)C(=O)Cn2c(=O)oc3ccccc32)cc1OCC | 0.927
Nc1ccccc1Nc1ccccc1 | -13.6
COc1ccc(OCc2cc(C(=O)N3CCC(c4ccccc4)CC3)no2)c(Cl)c1 | -18.3
Cc1ccc(C(=O)CSc2nnc(-c3ccccc3)n2-c2ccccc2)o1 | -3.09
O=C1/C(=C/c2cccnc2)SC(=S)N1C1CCS(=O)(=O)C1 (stereo not shown) | -0.422
CCOC(=O)c1c(-c2ccccc2)csc1NC(=O)CSc1nnc(C)s1 | 27.7
Cc1ccc(CNn2cnnc2SCc2ccc(F)cc2)cc1 | -36.3
COc1ccc(NC(=O)CSc2nc3ccccc3nc2N2CCOCC2)cc1 | -22.6
CCc1ccccc1NC(=O)C1(S(=O)(=O)c2ccc(C)cc2)CC1 | -43.7
COc1cc([C@@H]2[C@H]3CNCC=C3C(C#N)=C(N)C2(C#N)C#N)ccc1OC(C)C | -3.91
COc1ccc(C)cc1S(=O)(=O)N1CC(C)OC(C)C1 (stereo not shown) | 12.5
Cc1oc2cc3oc(=O)c(CCC(=O)N4C[C@H]5C[C@@H](C4)c4cccc(=O)n4C5)c(C)c3cc2c1C | -54
CCCN(CCC)CC(O)COc1ccccc1C(=O)Nc1ccccc1.Cl (stereo not shown) | -68.2
CC(C)CC(NS(=O)(=O)OCC(Cl)(Cl)Cl)c1ccccc1 (stereo not shown) | 1.57
O=C(CSc1nc(=O)n2ccccc2n1)N1CCCc2ccccc21 | -16.8

SMILES | hERG current change (%, negative = inhibition) at 10uM [%]
Cc1cccc(C)c1NC(=O)CSc1nnc(-c2cccnc2)o1 | 20.8
Cc1ccsc1/C=N\NC(=O)c1ccc2c(c1)OCO2 | -5.26
COc1ccccc1C(=O)NC(=O)COc1cc(Cl)ccc1Cl | 0.882
O=C1c2ccccc2C(=O)N1c1ncc(Cc2ccc(Cl)cc2)s1 | 8.75
CC(=O)N[C@H]1C(O)O[C@H](CO)[C@@H](O)[C@@H]1O (stereo partly shown) | 9.71
O=C(COc1cccc(C(F)(F)F)c1)Nc1cccnc1 | 4.03
CCc1ccccc1NC(=O)CSc1nnc(CCNC(=O)OC(C)(C)C)o1 | 13.9
Cn1c(=O)c2c(nc(N3CCN(c4ccccc4)CC3)n2CCCc2ccccc2)n(C)c1=O | 5.04
COCCSc1nc2c(c(=O)[nH]c(=O)n2C)n1CCCc1ccccc1 | -9.86
COC(=O)c1ccc(NC(=O)CCc2c(C)nc3ncnn3c2C)cc1 | 3.46
Cc1nc(NC(=O)c2cccc(Cl)c2)sc1-c1csc(Nc2cccc(Cl)c2)n1 | 6.47
O=C1CCN(S(=O)(=O)c2ccc(Cl)cc2)CCN1 | 0.31
O=C(CSc1nnc(NC(=O)c2ccccc2)s1)NCc1ccco1 | 15.7
CCN1C(=O)[C@H]2[C@@H](c3ccc(-c4ccc(F)cc4)c(OC)c3)N3CCC[C@@]3(C(=O)OC)[C@H]2C1=O.O=C(O)C(F)(F)F | -5.88
Cc1ccc(-c2nn(-c3ccc(F)cc3)cc2C(=O)NC2CCC(O)CC2)cc1 (stereo not shown) | 14.4
O=C(O)COc1ccc(-c2nccc(-c3cccs3)n2)cc1 | 9.86
O=C(NCc1ccccn1)C(=O)C1C(=O)Nc2ccccc21 (stereo not shown) | 10
O=C(Cc1ccc(Cl)c(Cl)c1)NC1CCCCCC1 | 2.45
CC(C)(C)NC(=O)C(c1cccs1)N(C(=O)C(=O)NC1CCCC1)c1ccccc1F (stereo not shown) | -1.42
CN(C)CCNC(=O)CNC(=S)N(Cc1ccccc1)Cc1ccccc1F | -40.6
CCCN(Cc1nnc(-c2ccccc2Cl)o1)C(=O)c1cc([N+](=O)[O-])cc([N+](=O)[O-])c1 | -55.1
CC(C)CNC(=S)N1CCN(C)CC1.O=C(O)C(=O)O | 11.7

SMILES | hERG current change (%, negative = inhibition) at 10uM [%]
CN1C(=O)CC[C@H]1c1cccnc1 | 8.38
O=[N+]([O-])c1cc([N+](=O)[O-])c(Oc2cncc(Cl)c2)cc1NC1CCCCCCC1 | 17.7
CC(C)C[C@H](NC(=O)c1nc[nH]c1C(=O)NCc1ccccc1)C(=O)OC(C)(C)C | 13
COc1ccc([N+](=O)[O-])cc1N1C(=O)c2cccc3cccc(c23)C1=O | -1.7
O=[N+]([O-])c1ccc(-c2nnc3n2CCCCC3)cc1 | -17.3
COc1ccc(C2CC2/C(C)=N/OC(=O)C2CC2)cc1 (stereo not shown) | 5
N#CCOc1nc(N2CCCC2)nc(N2CCCC2)n1 | 0.43
CCCCCCCN1CCN=C1N(C)C | -67.7
O=C(Oc1ccc(Cl)cc1)c1ccc2nccnc2c1 | 13.1
Cn1cnnc1SCC(=O)N(Cc1ccc2c(c1)OCO2)C1(C(=O)NC2CCCCC2)CCCC1 | -1.46
CCn1c(CSc2nc3ccccc3s2)nnc1SCC(=O)c1ccc(O)cc1O | 12.2
CCOCCCN(C)C1CCN(C(=O)c2oc3ccccc3c2NC(=O)c2ccc(F)cc2)CC1 | -77.5
Cc1cnc(C(=O)OCC(=O)Nc2ccc(Cl)cc2)cn1 | -1.37
O=C(Nc1ncn[nH]1)c1ccc(S(=O)(=O)N2CCOCC2)cc1 | -5.88
COc1ccc(OCC(=O)N/N=C2\CCCCc3ccccc32)cc1 | -12.3
Cc1ccc(SCCn2nc(C(=O)O)c3ccccc3c2=O)cc1 | 10.7
COc1ccc(COCC(O)CN2CCC(CN3C(=O)c4cccc5cccc(c45)C3=O)CC2)cc1OC.Cl (stereo not shown) | -71.5
Cc1nc(-c2ccc(NC(=O)c3ccccc3Br)cc2)cs1 | -3.18
COc1ccc(NC(=O)c2oc3ccccc3c2NC(=O)c2ccco2)cc1 | -8.61
